{
  "source": "PubChem BioAssay AID686979",
  "about": "(National Center for Advancing Translational Sciences (NCATS), 2013)",
  "note": "Among all 420,000 compounds or so, about 50,000 (12%) were called active. The inconclusive results got no clear call from the source; some entries with a clear call stand among them for comparison. The call rests on the fitted dose curve; in most records, active means well fitted inhibition curve with a large enough effect; inconclusive means small, poorly fitted or top-dose-only effect; inactive means flat fitted curve, though single readings scatter. Potencies of inconclusive entries are left out as doubtful fits. On the % scale 0 is the no-effect control and ±100 the full control effect; potency means the concentration at half of the fitted maximal effect; tags describe the fitted curve by direction and shape.",
  "data": [
    {"assay": "qHTS for Inhibitors of human tyrosyl-DNA phosphodiesterase 1 (TDP1): qHTS in cells in presence of CPT; further: nearly all actives have a fitted effect of over 55% in size", "conditions": "chicken DT40 Tdp1-/-;hTDP1 cells + 20 nM CPT, ATP luminescence, 48 h; activity change, negative = growth inhibition: at 46.2 µM (top of the series) unless noted", "method_in_brief": "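Chicken DT40 Tdp1-/- cells complemented with human TDP1, 400 cells/well, exposed to compounds plus 20 nM camptothecin for at least 48 h at 37 C; viability read as ATP content by CellTiter-Glo luminescence.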", "values": [
      {"smiles": "O=C(CNC(=O)C1CCCCC1)OCc1ccccc1", "activity change, negative = growth inhibition": "inactive: 19.3%"},
      {"smiles": "O=c1[nH]c(NC2CCN(S(=O)(=O)c3ccccc3C(F)(F)F)CC2)nc2c1CCCC2", "Potency": "active: 6.51 µM"},
      {"smiles": "Cc1c(C(=O)Nc2cccc(C(F)(F)F)c2)oc2ccc3c(c12)C(=O)CC(C)(C)O3", "Potency": "inconclusive [inhibitor, single point]"},
      {"smiles": "Cc1ccc(NS(=O)(=O)c2cc(OCC(N)=O)c(C)cc2Cl)cc1", "activity change, negative = growth inhibition": "inactive: -24.9%"},
      {"smiles": "COC(=O)[C@]12CCCCC=C1N(Cc1ccc3c(c1)OCO3)C(=O)[C@H](CC(=O)NCc1cccc3ccccc13)C2", "Potency": "inconclusive [inhibitor, single point]"},
      {"smiles": "Cc1nn(Cc2ccccc2)c(Cl)c1/C=N/NC(=O)c1cccnc1", "activity change, negative = growth inhibition": "inactive: -2.05%"},
      {"smiles": "COC(=O)CN1C(=O)CSc2ccc(S(=O)(=O)Nc3cc(C)ccc3C)cc21", "Potency": "inconclusive [inhibitor, partial curve]"},
      {"smiles": "O=S(=O)(NCC(c1cccs1)N1CCc2ccccc2C1)c1ccccc1", "note": "(stereo not drawn)", "activity change, negative = growth inhibition": "inactive: 16.1%"},
      {"smiles": "CN1CCN(CCCCOc2ccccc2C=O)CC1", "Potency": "inconclusive [inhibitor, single point]"},
      {"smiles": "CCOC(=O)c1sc2ncn(CC(=O)Nc3ccc(OCC)cc3)c(=O)c2c1C", "activity change, negative = growth inhibition": "inactive: 2.2%"},
      {"smiles": "COc1ccccc1-n1c(-c2cc(-c3ccco3)[nH]n2)n[nH]c1=S", "activity change, negative = growth inhibition": "inactive: -13%"},
      {"smiles": "CCn1c(C)nnc1SCC(=O)Nc1ccc(OC)cc1", "activity change, negative = growth inhibition": "inactive: -11.1%"},
      {"smiles": "CC1Cc2ccccc2N1C(=S)NC(=O)c1cccc(Br)c1", "note": "(stereo not drawn)", "Potency": "active: 20.6 µM"},
      {"smiles": "C#CC[N+](C)(C)CCCCCCCCCCCC", "Potency": "active: 1.3 µM"},
      {"smiles": "CCc1ccc(S(=O)(=O)Nc2cc3c(C(=O)OCc4ccccc4)c(C)oc3c3ccccc23)cc1", "Potency": "inconclusive [inhibitor, partial curve, poor fit]"},
      {"smiles": "COc1ccccc1CCc1nnc(CCC(=O)N(C)Cc2cccc3cnccc23)o1", "Potency": "inconclusive [inhibitor, partial curve]"},
      {"smiles": "O=C1N(c2cccc(Cl)c2)C(c2ccc(Cl)cc2)N2CCCN12", "note": "(stereo not drawn)", "activity change, negative = growth inhibition": "inactive: -0.868%"},
      {"smiles": "CC1CCc2nc3sc4c(c3c(N)c2C1)CCCC4", "note": "(stereo not drawn)", "Potency": "inconclusive [inhibitor, single point]"},
      {"smiles": "Nc1c(C(=O)O)ccc2c1C(=O)c1ccccc1C2=O", "activity change, negative = growth inhibition": "inactive: -7.61%"},
      {"smiles": "COc1ccc(-c2nn(-c3ccccc3)cc2C2CC(c3cccs3)=NN2C(=O)CCCC(=O)O)cc1", "note": "(stereo not drawn)", "Potency": "inconclusive [inhibitor, single point]"},
      {"smiles": "COc1ccc(C(=O)OCC(=O)NC2CCCCCCC2)cc1OC", "activity change, negative = growth inhibition": "inactive: 3.25%"},
      {"smiles": "Cc1ccc(S(=O)(=O)NC(CC(C)C)C(=O)Nc2nccs2)cc1", "note": "(stereo not drawn)", "activity change, negative = growth inhibition": "inactive: -3.67%"},
      {"smiles": "CC(=O)c1sc2nc(-c3cccs3)ccc2c1N", "activity change, negative = growth inhibition": "inactive: -23.8%"},
      {"smiles": "CC(=O)c1c(C)[nH]c(C(=O)Nc2ccc(C)c(S(=O)(=O)Nc3ccc(C)cc3C)c2)c1C", "Potency": "inconclusive [inhibitor, single point]"},
      {"smiles": "Cc1ccc(C(=O)C=CC=Cc2ccccc2)cc1", "Potency": "inconclusive [inhibitor, single point]"},
      {"smiles": "CCN(CC)C(=O)c1cccc(-c2csc(C(O)c3ccco3)n2)c1", "note": "(stereo not drawn)", "Potency": "active: 20.6 µM"},
      {"smiles": "CN(C)C(=O)c1nc2ccc(Cl)cn2c1CN1CCCC(OCc2cccnc2)C1", "note": "(stereo not drawn)", "activity change, negative = growth inhibition": "inactive: 0.307%"},
      {"smiles": "COc1ccc(NC(=O)COC(=O)C2COc3ccccc3O2)cc1OC", "note": "(stereo not drawn)", "activity change, negative = growth inhibition": "inactive: -12.9%"},
      {"smiles": "COC(=O)c1ccc(CN(Cc2ccc(C(=O)OC)o2)C(C)(C)C)o1", "activity change, negative = growth inhibition": "inconclusive: -32.6% [inhibitor]"},
      {"smiles": "CCOC(=O)Nc1ccc2c(c1)N(CCCN(C)C)c1ccccc1CC2", "Potency": "active: 23.1 µM"},
      {"smiles": "N#Cc1cnc(Nc2nc3ccccc3o2)nc1-c1ccccc1", "Potency": "inconclusive [inhibitor, single point]"},
      {"smiles": "CCCCn1c(=N)n(CC(O)COc2cccc(C)c2)c2ccccc21", "note": "(stereo not drawn)", "Potency": "active: 11.6 µM"},
      {"smiles": "Cc1ccc(S(=O)(=O)N(CC(=O)Nc2ccc3c(c2)OCO3)c2cc(Cl)cc(Cl)c2)cc1", "Potency": "inconclusive [inhibitor, single point]"},
      {"smiles": "C/C(=N\\NC(=O)c1nnn(-c2nonc2N)c1CN1CCc2ccccc21)c1ccccc1O", "Potency": "active: 6.51 µM"},
      {"smiles": "Cc1cccc(C2=NOC(=O)/C2=C\\c2ccccc2F)c1", "activity change, negative = growth inhibition": "inactive: -23.7%"},
      {"smiles": "COc1ccc(C2/C=C\\CN(S(=O)(=O)c3cccc4cccnc34)CC(=O)N2Cc2ccc(F)cc2)cc1", "note": "(stereo not drawn)", "Potency": "inconclusive [inhibitor, single point]"},
      {"smiles": "CC(C)C(C(=O)O)N1CCS(=O)(=O)CC1", "note": "(stereo not drawn)", "activity change, negative = growth inhibition": "inactive: 2.27%"},
      {"smiles": "Cc1noc(C)c1NC(=O)Nc1ccc2c(c1)C(=O)N([C@H](C)CO)C[C@H](C)[C@@H](CN(C)C(=O)Nc1ccc3c(c1)OCO3)O2", "activity change, negative = growth inhibition": "inactive: 10.7%"},
      {"smiles": "CN1C(=O)C(O)(CC(=O)c2cccs2)c2ccccc21", "note": "(stereo not drawn)", "Potency": "inconclusive [inhibitor, single point]"},
      {"smiles": "COc1ccc(CNC(=O)Cn2c(=O)nc(-c3ccccc3)c3ccccc32)cc1OC", "Potency": "inconclusive [inhibitor, single point]"},
      {"smiles": "COc1cc(/C=N/Nc2ccc(C(F)(F)F)cn2)cc(OC)c1O", "Potency": "inconclusive [inhibitor, single point]"},
      {"smiles": "CC1(C)Cc2c(sc3c2c(=N)n(Cc2ccco2)c(=O)n3CC(=O)Nc2ccccc2)CO1", "Potency": "inconclusive [inhibitor, partial curve, poor fit]"},
      {"smiles": "O=C(NCCN1CCOCC1)c1ccc(Cl)c(S(=O)(=O)N2CCCC2)c1", "activity change, negative = growth inhibition": "inactive: 0.703%"},
      {"smiles": "O=C(NCCC1=CCCCC1)c1ccc2c(c1)N(Cc1cccc(Cl)c1)C(=O)c1ccccc1S2=O", "note": "(stereo not drawn)", "Potency": "inconclusive [inhibitor, single point]"},
      {"smiles": "CCCCNCCS(=O)(=O)NCc1ccccc1OC", "activity change, negative = growth inhibition": "inactive: -0.41%"},
      {"smiles": "Cc1ccc(C)c(NC(=O)CN(C)C(=O)c2cccc(S(=O)(=O)N3CCN(Cc4ccccc4)CC3)c2)c1", "Potency": "active: 18.4 µM"},
      {"smiles": "CC(NC(=O)C1CC1)C(c1cccs1)N1CCN(c2ccccc2)CC1", "note": "(stereo not drawn)", "Potency": "inconclusive [inhibitor, partial curve]"},
      {"smiles": "CCOc1ccc(C(C(=O)NCC2CCCO2)N(Cc2cccc(OC)c2)C(=O)c2snc(C(N)=O)c2N)cc1", "note": "(stereo not drawn)", "activity change, negative = growth inhibition": "inactive: 2.43%"},
      {"smiles": "CCN(C(=O)Cn1nnc2sc3c(c2c1=O)CCC(C(C)(C)C)C3)c1cccc(C)c1", "note": "(stereo not drawn)", "Potency": "active: 16.4 µM"},
      {"smiles": "CCCNS(=O)(=O)c1ccc(OCC(=O)Nc2ccc3c(c2)OCO3)cc1", "activity change, negative = growth inhibition": "inactive: -1.36%"},
      {"smiles": "COC(=O)c1cc2oc3ccccc3c2n1Cc1nc(-c2ccc(Cl)cc2)oc1C", "activity change, negative = growth inhibition": "inactive: -9.12%"},
      {"smiles": "Cc1cccc2c3c([nH]c12)CCN(C)C3", "activity change, negative = growth inhibition": "inactive: 23.9%"},
      {"smiles": "Cc1c(N=C2NN=C(c3c[nH]c4ccccc34)CS2)c(=O)n(-c2ccccc2)n1C", "activity change, negative = growth inhibition": "inactive: -3.42%"},
      {"smiles": "O=C(Nc1cc(C(F)(F)F)ccc1-n1cncn1)c1ccc(F)cc1Cl", "Potency": "inconclusive [inhibitor, partial curve]"},
      {"smiles": "CC(C)NC(=O)N1CCC2(CC1)CCN(C(=O)c1cc(C(F)(F)F)cc(C(F)(F)F)c1)CC2", "activity change, negative = growth inhibition": "inactive: -26.7%"},
      {"smiles": "C(=C\\n1nnc2ccccc21)/c1ccc[nH]1", "Potency": "active: 18.4 µM"},
      {"smiles": "CN1CCN(c2ccc(Cl)cc2NC(=O)c2ccc(=O)n(C)n2)CC1", "Potency": "inconclusive [inhibitor, single point]"},
      {"smiles": "Nc1ccc(S(=O)(=O)Nc2cnc3c(Cl)cccc3n2)cc1", "Potency": "inconclusive [inhibitor, partial curve]"},
      {"smiles": "CCCOC(=O)c1ccc(NC(=O)c2cccc(S(=O)(=O)N3CCN(C(C)=O)CC3)c2)cc1", "Potency": "inconclusive [inhibitor, single point]"},
      {"smiles": "Cc1ccc(OCCCN2CCCC2)c(C)c1", "activity change, negative = growth inhibition": "inactive: -12.1%"},
      {"smiles": "CN1C[C@@H]2[C@@H]3C(=O)N(Cc4ccccc4)C(=O)[C@@H]3[C@](C)(C1=O)N2C(=O)c1ccc(C(C)(C)C)cc1", "Potency": "inconclusive [inhibitor, single point]"},
      {"smiles": "COc1cc2c(cc1OC)CN(C(=O)CN1CCN(S(=O)(=O)c3ccccc3)CC1)CC2", "Potency": "inconclusive [inhibitor, single point]"},
      {"smiles": "CCC(c1nnnn1Cc1ccc2c(c1)OCO2)N1CCN(c2ccc(OC)cc2)CC1", "note": "(stereo not drawn)", "Potency": "active: 25.9 µM"},
      {"smiles": "COC(=O)C1=C(O)/C(=C/c2ccc(OCC(=O)Nc3ccccc3)cc2)N=C1C", "activity change, negative = growth inhibition": "inactive: -4.89%"},
      {"smiles": "Cc1ccc(-n2c(SCC(=O)N/N=C/c3ccc(C)s3)nnc2-c2ccccc2)cc1", "Potency": "inconclusive [inhibitor, single point]"},
      {"smiles": "O=C(Nc1nc2c(s1)CCCC2)C1COc2ccccc2O1", "note": "(stereo not drawn)", "Potency": "inconclusive [inhibitor, partial curve, poor fit]"},
      {"smiles": "COc1ccc(CNc2nc(NCc3ccc(OC)cc3)c3[nH]cnc3n2)cc1", "Potency": "inconclusive [inhibitor, single point]"},
      {"smiles": "Cc1ccc(OCCn2c(CCCO)nc3ccccc32)cc1", "Potency": "inconclusive [inhibitor, single point]"},
      {"smiles": "COc1ccc(CCNC(=S)NC(=O)c2c(-c3ccccc3Cl)noc2C)cc1OC", "Potency": "inconclusive [inhibitor, single point]"},
      {"smiles": "COc1ccc(OC)c(NC(=O)CN2c3cccc4cccc(c34)S2(=O)=O)c1", "Potency": "inconclusive [inhibitor, single point]"},
      {"smiles": "O=C(CCCC(=O)N(c1ccc2c(c1)OCCO2)C(C(=O)NC1CCCCC1)c1ccc(F)cc1)Nc1ccccn1", "note": "(stereo not drawn)", "Potency": "inconclusive [inhibitor, single point]"},
      {"smiles": "CCCCn1c(-c2ccc(Cl)c(Cl)c2)nc2cc3[nH]c(=O)c(C(C)C)nc3cc21", "Potency": "inconclusive [inhibitor, single point]"},
      {"smiles": "COC(=O)[C@@]12C[C@@H](CC(=O)NCCC(C)C)C(=O)N(Cc3cccc4ccccc34)C1=CCC(C)(C)C2", "Potency": "inconclusive [inhibitor, single point]"}
    ]}
  ]
}
